Test results published in PubChem BioAssay AID504332 (National Center for Advancing Translational Sciences (NCATS), 2011).
The whole screen tested about 350,000 compounds, of which about 31,000 (8.9%) were called active. Inconclusive means that the source gave no clear call. Such entries were picked first, then a sample of the others. Calls come from the whole dose curve; as a rule, active = well fitted inhibition curve with a large enough effect; inconclusive = small, poorly fitted or top-dose-only effect; inactive = no such curve, though single readings can be large or run the other way. A potency beside an inconclusive call is a rough fit, not a confirmed value.

The molecules below were run against Histone-lysine N-methyltransferase EHMT2 (Homo sapiens) (UniProt Q96KQ7) (assay: qHTS Assay for Inhibitors of Histone Lysine Methyltransferase G9a). Settings: G9a H3K9 monomethylation, AlphaScreen, 2 h; activity, negative = inhibition: at 59 µM (top of the series) unless noted.
UniProt Q96KQ7, sequence (Q96KQ7 whole entry, looked up): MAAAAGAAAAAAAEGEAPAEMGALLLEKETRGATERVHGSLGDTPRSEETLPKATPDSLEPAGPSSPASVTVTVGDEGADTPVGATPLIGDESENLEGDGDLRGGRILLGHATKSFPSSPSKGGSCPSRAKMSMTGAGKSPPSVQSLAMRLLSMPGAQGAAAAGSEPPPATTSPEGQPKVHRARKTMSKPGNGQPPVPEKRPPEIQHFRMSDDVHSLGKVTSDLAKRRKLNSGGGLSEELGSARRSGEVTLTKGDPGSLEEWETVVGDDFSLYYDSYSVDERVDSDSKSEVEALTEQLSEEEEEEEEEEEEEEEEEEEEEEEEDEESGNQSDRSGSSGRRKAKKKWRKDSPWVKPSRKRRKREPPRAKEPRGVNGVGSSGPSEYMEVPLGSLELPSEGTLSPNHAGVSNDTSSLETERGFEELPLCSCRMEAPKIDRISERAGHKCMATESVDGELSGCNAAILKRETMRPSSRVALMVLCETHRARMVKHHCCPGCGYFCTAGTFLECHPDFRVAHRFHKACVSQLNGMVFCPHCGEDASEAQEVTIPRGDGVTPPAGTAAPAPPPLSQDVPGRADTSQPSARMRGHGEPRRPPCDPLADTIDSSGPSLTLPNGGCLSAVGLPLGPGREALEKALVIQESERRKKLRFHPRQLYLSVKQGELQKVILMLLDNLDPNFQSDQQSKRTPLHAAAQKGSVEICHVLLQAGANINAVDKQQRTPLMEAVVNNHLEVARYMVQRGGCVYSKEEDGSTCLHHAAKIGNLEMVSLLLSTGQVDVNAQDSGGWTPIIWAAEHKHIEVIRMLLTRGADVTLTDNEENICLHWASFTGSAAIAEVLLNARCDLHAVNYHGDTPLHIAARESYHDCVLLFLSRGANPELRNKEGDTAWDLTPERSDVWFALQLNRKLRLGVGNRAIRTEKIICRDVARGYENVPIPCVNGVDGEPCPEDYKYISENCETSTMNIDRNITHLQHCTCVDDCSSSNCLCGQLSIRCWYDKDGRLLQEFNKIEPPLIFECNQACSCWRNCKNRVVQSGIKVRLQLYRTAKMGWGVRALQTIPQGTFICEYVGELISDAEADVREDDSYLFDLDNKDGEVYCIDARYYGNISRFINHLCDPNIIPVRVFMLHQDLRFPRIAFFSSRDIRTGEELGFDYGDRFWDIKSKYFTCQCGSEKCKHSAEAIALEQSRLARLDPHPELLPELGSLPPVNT
Outline: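 Methyltransferase reactions run at room temperature for 2 h (20 nM enzyme, 500 nM biotin-H3K9 peptide, 20 uM SAM) after a 15 min compound preincubation; product detected by AlphaScreen beads and anti-H3K9me1 antibody.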
% is set by controls: 0 for no effect and ±100 for the full control effect; potency is the fitted concentration of half-maximal effect; tags give direction and shape of the fitted curve.
Note: nearly all actives have a fitted effect of over 75% in size.

Row | Compound | activity, negative = inhibition | Potency
1 | O=c1c2c3c(sc2nc2n1CCC2)CCC3 | inactive: 5.18% | –
2 | CNc1ccc(C(=O)OCC(=O)NCc2ccc3c(c2)OCO3)cc1[N+](=O)[O-] | inactive: -18.1% | –
3 | Cc1sc2nc(CN(C(=O)NC3CCCCC3)C3CCCCC3)[nH]c(=O)c2c1C | – | inconclusive: 17.8 µM [inhibitor, single point]
4 | COc1cccc(-n2nnnc2SCC(=O)c2ccc(NC(C)=O)cc2)c1 | inactive: -20.2% [at 102 µM] | –
5 | CCCC(=O)NC(=S)Nc1ccccc1C(=O)OC | – | active: 39.8 µM
6 | CNC(=S)N1CCN(c2ccc([N+](=O)[O-])cc2)CC1 | inactive: 8% [at 102 µM] | –
7 | Cc1cc2c(C)cc(=O)[nH]c2cc1NC(=O)CCl | – | inconclusive: 89.1 µM [inhibitor, partial curve, poor fit]
8 | O=C(On1c(-c2ccccc2)nc2ccccc2c1=O)c1ccco1 | – | inconclusive: 25.1 µM [inhibitor, single point]
9 | COc1ccccc1N1CCN(C(=O)c2cc3c(=O)n(Cc4cccs4)ccc3nc2C)CC1 | inactive: 4.6% | –
10 | CCCCCCCc1ccc(-c2ccc(O)cc2)nc1 | inactive: 22.2% [at 102 µM] | –
11 | CC(=O)Nc1ccc(Nc2ccc3c4c(cc(=O)n3C)-c3ccccc3C(=O)c24)cc1 | inconclusive: -62.8% [inhibitor] [at 12.7 µM] | –
12 | Cc1cc(C(=O)NCCCN2CCOCC2)n(-c2ccccc2)n1 | – | inconclusive: 31.6 µM [inhibitor, single point]
13 | COc1ccc(S(=O)(=O)N(CC(=O)NC(C)c2ccccc2)c2ccc(C)cc2)cc1OC (stereo not given) | – | inconclusive: 39.8 µM [inhibitor, single point]
14 | CCOC(=O)C1CCN(CC(C)(C)NS(=O)(=O)c2ccc(Cl)cc2)CC1 | – | active: 11.2 µM
15 | CCOC(=O)C1=C(CP(=O)(c2ccccc2)c2ccccc2)NC(=O)NC1c1ccc(Cl)cc1 (stereo not given) | – | inconclusive: 89.1 µM [inhibitor, single point]
16 | Cc1ccc(C(=O)Nc2ccccc2N2CCCC2)cc1 | – | inconclusive: 89.1 µM [inhibitor, single point]
17 | COc1ccccc1NC(=O)N1CCN(c2ccc3nnc(-c4ccc(F)cc4)n3n2)CC1 | – | inconclusive: 50.1 µM [inhibitor, partial curve, poor fit]
18 | CCOc1ccc(NC(=O)Cn2nc(Cc3cccnc3)c3ccccc3c2=O)cc1 | inactive: -0.852% | –
19 | COc1ccc(/C=N/OCC(=O)N(Cc2ccccc2)c2ccccc2C(=O)O)cc1 | – | inconclusive: 39.8 µM [inhibitor, single point]
20 | Cc1nn(CCc2nc(-c3ccco3)cs2)c2[nH]c(=O)cc(C(F)(F)F)c12 | – | inconclusive: 7.94 µM [inhibitor, full curve, poor fit]
